Experimental data taken from paper PMC4336329 (PLoS ONE, 2015).
About 14,000 (4.5%) of roughly 310,000 compounds showed an effect of 50% or more. The effect is printed as a negative number. The list shows a part of the results.

Biological target: human ether-à-go-go-related gene (hERG) potassium channel (human, UniProt Q12809)
Assay: primary screen, population patch clamp on CHO cells stably expressing hERG
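Also: peak tail current of the secondary pulse compared with the same well before compound.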

human ether-à-go-go-related gene (hERG) potassium channel, sequence (Q12809 whole entry, looked up): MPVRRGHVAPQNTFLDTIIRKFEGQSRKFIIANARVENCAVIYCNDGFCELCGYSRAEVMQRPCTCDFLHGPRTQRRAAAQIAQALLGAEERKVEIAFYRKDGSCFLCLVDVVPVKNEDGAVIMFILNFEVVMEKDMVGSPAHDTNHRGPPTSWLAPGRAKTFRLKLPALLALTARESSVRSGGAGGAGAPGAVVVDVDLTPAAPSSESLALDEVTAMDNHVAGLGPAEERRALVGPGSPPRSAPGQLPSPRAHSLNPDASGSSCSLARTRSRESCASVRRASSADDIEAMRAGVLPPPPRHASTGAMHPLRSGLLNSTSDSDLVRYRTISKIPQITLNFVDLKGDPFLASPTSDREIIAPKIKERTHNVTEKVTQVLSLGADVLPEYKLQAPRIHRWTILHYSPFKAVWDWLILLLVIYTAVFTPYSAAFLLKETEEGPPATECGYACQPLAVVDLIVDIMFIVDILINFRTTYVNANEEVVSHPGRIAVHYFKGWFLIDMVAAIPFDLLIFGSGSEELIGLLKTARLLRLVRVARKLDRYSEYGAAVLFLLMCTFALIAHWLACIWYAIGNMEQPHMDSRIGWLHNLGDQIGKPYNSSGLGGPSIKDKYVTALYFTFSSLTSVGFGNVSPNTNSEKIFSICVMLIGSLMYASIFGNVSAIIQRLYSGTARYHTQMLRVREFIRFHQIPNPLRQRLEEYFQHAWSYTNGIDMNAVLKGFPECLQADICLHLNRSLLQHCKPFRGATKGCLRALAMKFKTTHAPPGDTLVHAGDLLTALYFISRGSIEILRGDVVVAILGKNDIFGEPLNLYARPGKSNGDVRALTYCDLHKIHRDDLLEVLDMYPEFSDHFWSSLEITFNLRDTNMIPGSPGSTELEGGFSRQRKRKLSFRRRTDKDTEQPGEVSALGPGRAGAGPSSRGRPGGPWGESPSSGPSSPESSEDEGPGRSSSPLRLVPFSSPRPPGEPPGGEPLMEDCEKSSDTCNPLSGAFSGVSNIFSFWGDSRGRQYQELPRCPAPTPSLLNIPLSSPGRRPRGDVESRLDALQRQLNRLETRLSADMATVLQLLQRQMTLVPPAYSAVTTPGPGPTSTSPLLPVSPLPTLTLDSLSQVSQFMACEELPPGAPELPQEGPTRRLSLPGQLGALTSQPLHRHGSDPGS

First: COC(=O)c1c(C)n(Cc2ccco2)c2ccc(O)cc12
Second: O=C(Nc1cc(Cl)ccc1O)c1cc(-c2ccco2)on1
The “hERG current change (%, negative = inhibition) at 10uM” value of the first is lower: -11.6% for the first, 8.36% for the second.

First: Cc1occc1C(=O)Nc1ccc2c(c1)OCO2
Second: O=C(Nc1ccc2c(c1)OCO2)c1cc(-c2ccc(O)cc2)on1
The “hERG current change (%, negative = inhibition) at 10uM” value of the first is lower: -7.71% for the first, 22.4% for the second.

Going from `COc1cc(OC)c(C(=O)OC(C)C(=O)Nc2cc(C(F)(F)F)ccc2Cl)cc1OC` (stereo not shown) to `CCOc1ccccc1C(=O)NC(C(=O)NCc1ccccc1OC)C(C)C` (stereo not shown), the “hERG current change (%, negative = inhibition) at 10uM” value falls from -2.43% to -35.3%.

Compared with `Cc1cc2occ(CC(=O)N(C)CC(=O)Nc3c(C)cccc3C)c2cc1C`, `Cc1ccc(C)c(N=Cc2c(O)c3ccccc3oc2=O)c1` is higher in “hERG current change (%, negative = inhibition) at 10uM” value: 9.34% for the first, 16.3% for the second.

Going from `CCc1cc(C(=O)N2CCN(c3ccccn3)CC2)sc1C` to `COc1ccccc1C(=O)N1CCN(C(=O)c2ccncc2)CC1`, the “hERG current change (%, negative = inhibition) at 10uM” value rises from -3.12% to -2.76%.

Compared with `COc1ccc(C(=O)NC2CC2)cc1OC1CCN(Cc2ccccc2F)CC1`, `Cc1ccc(C(=O)N[C@H](C(=O)N2CCN(c3ccccc3F)CC2)C(C)C)cc1` is higher in “hERG current change (%, negative = inhibition) at 10uM” value: -78% for the first, -8.57% for the second.

Going from `C/C(=N/NS(=O)(=O)c1cc(C)ccc1C)c1c[nH]c2ccccc12` to `O=C(Nc1cccnc1)c1coc(=O)c2ccccc12`, the “hERG current change (%, negative = inhibition) at 10uM” value falls from 14.2% to 6.62%.

Going from `COc1cccc2oc3cc(C#Cc4ccccn4)ccc3c(=O)c12` to `O=C(Nc1ccc2oc(-c3ccccc3)nc2c1)c1cccnc1`, the “hERG current change (%, negative = inhibition) at 10uM” value rises from -13.1% to -8.37%.

First: CCOC(=O)c1nnc(-c2cccs2)nc1Oc1ccc(Cl)cc1
Second: CC1=Nc2ccccc2N=C(NC(=O)c2ccccc2)C1c1ccc(Cl)cc1 (stereo not shown)
The “hERG current change (%, negative = inhibition) at 10uM” value of the first is lower: 7.09% for the first, 12.7% for the second.

First: CC1CCC(CN2CCN=C2Nc2ccccc2)CC1 (stereo not shown)
Second: CCCC(C(=O)Nc1ccncc1)c1ccccc1 (stereo not shown)
The “hERG current change (%, negative = inhibition) at 10uM” value of the first is lower: -14.7% for the first, 14.8% for the second.

Going from `CCCCC(CCC(=O)Nc1ccccc1C(=O)OCC)C(=O)O` (stereo not shown) to `CCOC(=O)C1CCN(CC(=O)Nc2cc(S(=O)(=O)N3CCOCC3)ccc2C)CC1.O=C(O)C(=O)O`, the “hERG current change (%, negative = inhibition) at 10uM” value falls from -3.09% to -8.57%.

First: COCCN(CCOC)S(=O)(=O)c1ccc(C(=O)Nc2nnc(C)o2)cc1
Second: CCN(Cc1ccc2c(c1)OCCO2)S(=O)(=O)c1ccc(NC(C)=O)cc1
The “hERG current change (%, negative = inhibition) at 10uM” value of the first is higher: 7.79% for the first, -10.8% for the second.

Compared with `CN1CCN(C(=O)c2ccc3c(Cl)c4c(nc3c2)CCCC4)CC1`, `Cc1cccc(NC(=O)CSc2c3c(nc4ccccc24)CCC3)n1` is lower in “hERG current change (%, negative = inhibition) at 10uM” value: -9.43% for the first, -15.4% for the second.

Going from `Cc1cccc(/C=N/NC(=O)c2c(-c3ccccc3)noc2C)c1O` to `Cc1nc(NC(=O)c2ccccc2)sc1C`, the “hERG current change (%, negative = inhibition) at 10uM” value falls from 7.29% to 7.28%.

Going from `C/C(=N/NC(=O)c1ccc(NC(=O)c2ccc(F)cc2)cc1)c1ccccc1` to `Cl.Fc1ccc(COc2ccccc2CNCc2ccncc2)cc1`, the “hERG current change (%, negative = inhibition) at 10uM” value falls from -2.67% to -32.6%.

Compared with `CCOc1cc(N2CCOCC2)c(OCC)cc1NC(=O)C(C)(C)C`, `Cc1ccc(C)c(S(=O)(=O)N2CCN(CC(=O)Nc3cc(C)on3)CC2)c1` is lower in “hERG current change (%, negative = inhibition) at 10uM” value: 17.4% for the first, -12.6% for the second.

Compared with `Cc1ccc(S(=O)(=O)CCc2nnc(NC(=O)c3ccccn3)s2)cc1`, `Cc1ccc(S(=O)(=O)NCCC(=O)OCC(=O)Nc2cccc(Cl)c2)cc1` is lower in “hERG current change (%, negative = inhibition) at 10uM” value: -1.45% for the first, -27.5% for the second.

First: O=c1/c(=C/c2ccco2)sc2nc(-c3ccccc3Br)nn12
Second: c1ccc(-c2nn3c(Cn4cnc5ccccc54)nnc3s2)cc1
The “hERG current change (%, negative = inhibition) at 10uM” value of the first is higher: 12.7% for the first, -7.78% for the second.

Compared with `O=C(c1ccco1)N1CCN(S(=O)(=O)c2cccc([N+](=O)[O-])c2)CC1`, `Cc1ccc(S(=O)(=O)Nc2ccc(S(=O)(=O)N3CCOCC3)cc2)cc1` is higher in “hERG current change (%, negative = inhibition) at 10uM” value: -20.7% for the first, 3.78% for the second.

Compared with `CC1CCN(C(=O)c2[nH]cnc2C(=O)NCCCCCNC(=O)OC(C)(C)C)CC1`, `Cc1c(CC(=O)NCCCCCC(=O)O)c(=O)oc2cc3c(cc12)CCC(C)(C)O3` is lower in “hERG current change (%, negative = inhibition) at 10uM” value: 10.6% for the first, 9.83% for the second.

First: NC(=O)c1cc(S(=O)(=O)Nc2ccc(OC(F)(F)F)cc2)cs1
Second: CC(NS(=O)(=O)c1ccccc1)C(c1cccs1)N1CCN(C)CC1 (stereo not shown)
The “hERG current change (%, negative = inhibition) at 10uM” value of the first is higher: 14.3% for the first, 5.5% for the second.

For `Cc1cc(-c2ccc(Cl)cc2Cl)c(C#N)c(=O)[nH]1`, the “hERG current change (%, negative = inhibition) at 10uM” value was -2.97%.
